This passage reports AUC and IC50 results from the supplement of paper PMC4967469.

By IC50 is meant the dose at which the fit gives 50% viability; fits outside the tested doses are given as limits. The AUC spans the tested range (256-fold, ending at the top dose) of the same fit: 1 means no effect, lower means more sensitive. A top dose marked as inferred comes from the curve model; the source does not state it. Drugs with an entry number were screened twice under separate entries, and the two screens often disagree. Some results are limits rather than exact numbers.

Compound in the first assay: NC(=O)[C@@H](CCC(F)(F)F)N(Cc1ccc(-c2ncon2)cc1F)S(=O)(=O)c1ccc(Cl)cc1 [BMS-708163]
As to the kind of experiment: Viability of human cancer cell lines after 72 h of drug (GDSC screen). As to conditions: screen: GDSC drug entry 205; top dose inferred. As for the experimental part: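 Human cancer cell lines in 384-well plates, medium with 10% serum, drug for 72 h over a 256-fold dose range (nine 2-fold or five 4-fold steps up to the top dose). Adherent lines were fixed and stained with the nucleic acid dye Syto60, suspension lines read with resazurin; signal relative to control wells, capped at 0 and 100%. One two-parameter sigmoid per drug and line, fitted in a mixed model over all curves with the slope shared within a line.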
On to “8-MG-BA (glioma, adherent, top dose 10.24 µM)”, for which the AUC was 0.987 and the IC50 (usually the concentration at which inhibition is half-maximal) was more than 10.2 µM.
The like results for “22RV1 (prostate, adherent, top dose 10.24 µM)” were, in that order, 0.979 and more than 10.2 µM.
The like results for “42-MG-BA (glioma, adherent, top dose 10.24 µM)” were, in that order, 0.985 and more than 10.2 µM.
For the cell line “201T (lung adenocarcinoma, adherent, top dose 10.24 µM)”, the AUC amounted to 0.979 and the IC50 was more than 10.2 µM.
Taken in the same sequence, the figures for “451Lu (melanoma, adherent, top dose 10.24 µM)” were 0.989 and more than 10.2 µM.
The like results for “639-V (bladder, adherent, top dose 10.24 µM)” were, in that order, 0.991 and more than 10.2 µM.
On to “647-V (bladder, adherent, top dose 10.24 µM)”, for which the AUC was 0.987 and the IC50 was more than 10.2 µM.
Taken in the same sequence, the figures for “697 (lymphoblastic leukaemia, suspension, top dose 10.24 µM)” were 0.978 and more than 10.2 µM.
The like results for “769-P (kidney, adherent, top dose 10.24 µM)” were, in that order, 0.98 and more than 10.2 µM.
Taken in the same sequence, the figures for “786-0 (kidney, adherent, top dose 10.24 µM)” were 0.982 and more than 10.2 µM.
Turning to “5637 (bladder, adherent, top dose 10.24 µM)”, the AUC was 0.989 and the 50% inhibitory concentration (IC50) is more than 10.2 µM.
Consider “8305C (thyroid, adherent, top dose 10.24 µM)”, for which the AUC stood at 0.976 and the IC50 is more than 10.2 µM.
The like results for “8505C (thyroid, adherent, top dose 10.24 µM)” were, in that order, 0.983 and more than 10.2 µM.
Taken in the same sequence, the figures for “23132-87 (stomach, adherent, top dose 10.24 µM)” were 0.986 and more than 10.2 µM.
Consider “A3-KAW (B-cell lymphoma, suspension, top dose 10.24 µM)”, for which the AUC came to 0.989 and the IC50 is more than 10.2 µM.
Taken in the same sequence, the figures for “A4-Fuk (B-cell lymphoma, suspension, top dose 10.24 µM)” were 0.986 and more than 10.2 µM.
Taken in the same sequence, the figures for “A101D (melanoma, adherent, top dose 10.24 µM)” were 0.981 and more than 10.2 µM.
Consider “A172 (glioma, adherent, top dose 10.24 µM)”, for which the AUC amounted to 0.985 and the IC50 is more than 10.2 µM.
The like results for “A204 (rhabdomyosarcoma, adherent, top dose 10.24 µM)” were, in that order, 0.978 and more than 10.2 µM.
The like results for “A253 (head and neck, adherent, top dose 10.24 µM)” were, in that order, 0.988 and more than 10.2 µM.
For the cell line “A375 (melanoma, adherent, top dose 10.24 µM)”, the AUC amounted to 0.988 and the IC50 is more than 10.2 µM.
The like results for “A388 (skin, adherent, top dose 10.24 µM)” were, in that order, 0.984 and more than 10.2 µM.
Turning to “A427 (non-small cell lung carcinoma, adherent, top dose 10.24 µM)”, the AUC came out at 0.982 and the IC50 is more than 10.2 µM.
The like results for “A431 (skin, adherent, top dose 10.24 µM)” were, in that order, 0.987 and more than 10.2 µM.
The like results for “A498 (kidney, adherent, top dose 10.24 µM)” were, in that order, 0.978 and more than 10.2 µM.
The like results for “A673 (rhabdomyosarcoma, adherent, top dose 10.24 µM)” were, in that order, 0.984 and more than 10.2 µM.
Take “A704 (kidney, adherent, top dose 10.24 µM)”: the AUC stood at 0.989 and the IC50 is more than 10.2 µM.
Consider “A2058 (melanoma, adherent, top dose 10.24 µM)”, for which the AUC came to 0.99 and the IC50 was more than 10.2 µM.
The like results for “A2780 (ovary, semi-adherent, top dose 10.24 µM)” were, in that order, 0.968 and more than 10.2 µM.
The like results for “ABC-1 (lung adenocarcinoma, adherent, top dose 10.24 µM)” were, in that order, 0.983 and more than 10.2 µM.
Taken in the same sequence, the figures for “ACHN (kidney, adherent, top dose 10.24 µM)” were 0.983 and more than 10.2 µM.
In the case of “AGS (stomach, adherent, top dose 10.24 µM)”, the AUC came to 0.988 and the 50% inhibitory concentration (IC50) is more than 10.2 µM.
The like results for “ALL-PO (lymphoblastic leukaemia, suspension, top dose 10.24 µM)” were, in that order, 0.964 and more than 10.2 µM.
Taken in the same sequence, the figures for “ALL-SIL (T-cell leukaemia, suspension, top dose 2.56 µM)” were 0.989 and more than 2.56 µM.
Taken in the same sequence, the figures for “AM-38 (glioma, semi-adherent, top dose 10.24 µM)” were 0.988 and more than 10.2 µM.
In the case of “AMO-1 (haematopoietic neoplasm, suspension, top dose 10.24 µM)”, the AUC amounted to 0.962 and the IC50 is more than 10.2 µM.
As for “AN3-CA (endometrium, adherent, top dose 10.24 µM)”, the AUC is 0.985 and the IC50 is more than 10.2 µM.
Taken in the same sequence, the figures for “ARH-77 (myeloma, suspension, top dose 10.24 µM)” were 0.984 and more than 10.2 µM.
Taken in the same sequence, the figures for “ASH-3 (thyroid, adherent, top dose 10.24 µM)” were 0.987 and more than 10.2 µM.
The like results for “ATN-1 (T-cell lymphoblastic leukaemia, suspension, top dose 2.56 µM)” were, in that order, 0.982 and more than 2.56 µM.
With “AU565 (breast, adherent, top dose 10.24 µM)”, the AUC stood at 0.984 and the IC50 was more than 10.2 µM.
Taken in the same sequence, the figures for “AsPC-1 (pancreas, adherent, top dose 10.24 µM)” were 0.963 and more than 10.2 µM.
Taken in the same sequence, the figures for “BB30-HNC (head and neck, adherent, top dose 10.24 µM)” were 0.979 and more than 10.2 µM.
The like results for “BB49-HNC (head and neck, adherent, top dose 10.24 µM)” were, in that order, 0.972 and more than 10.2 µM.
“BB65-RCC (kidney, adherent, top dose 10.24 µM)”: the AUC is 0.983 and the IC50 is more than 10.2 µM.
The like results for “BC-1 (B-cell lymphoma, suspension, top dose 10.24 µM)” were, in that order, 0.982 and more than 10.2 µM.
In the case of “BC-3 (B-cell lymphoma, suspension, top dose 10.24 µM)”, the AUC was determined as 0.989 and the IC50 was more than 10.2 µM.
The like results for “BCPAP (thyroid, adherent, top dose 10.24 µM)” were, in that order, 0.987 and more than 10.2 µM.
Taken in the same sequence, the figures for “BE2-M17 (neuroblastoma, adherent, top dose 10.24 µM)” were 0.987 and more than 10.2 µM.
As to “BE-13 (lymphoblastic leukaemia, suspension, top dose 10.24 µM)”, the AUC was 0.987 and the 50% inhibitory concentration (IC50) is more than 10.2 µM.
With “BEN (non-small cell lung carcinoma, adherent, top dose 10.24 µM)”, the AUC amounted to 0.984 and the IC50 is more than 10.2 µM.
The like results for “BFTC-905 (bladder, adherent, top dose 10.24 µM)” were, in that order, 0.99 and more than 10.2 µM.
Taken in the same sequence, the figures for “BFTC-909 (kidney, adherent, top dose 10.24 µM)” were 0.987 and more than 10.2 µM.
Taken in the same sequence, the figures for “BHT-101 (thyroid, adherent, top dose 10.24 µM)” were 0.984 and more than 10.2 µM.
Consider “BHY (head and neck, adherent, top dose 10.24 µM)”, for which the AUC was 0.987 and the IC50 was more than 10.2 µM.
The like results for “BICR10 (head and neck, adherent, top dose 10.24 µM)” were, in that order, 0.985 and more than 10.2 µM.
Consider “BICR22 (head and neck, adherent, top dose 10.24 µM)”, for which the AUC came out at 0.983 and the IC50 was more than 10.2 µM.
The like results for “BICR31 (head and neck, adherent, top dose 10.24 µM)” were, in that order, 0.988 and more than 10.2 µM.
Regarding “BICR78 (head and neck, adherent, top dose 10.24 µM)”, the AUC worked out at 0.983 and the IC50 was more than 10.2 µM.
Taken in the same sequence, the figures for “BL-41 (Burkitt lymphoma, suspension, top dose 10.24 µM)” were 0.987 and more than 10.2 µM.
Taken in the same sequence, the figures for “BPH-1 (prostate, adherent, top dose 10.24 µM)” were 0.971 and more than 10.2 µM.
Taken in the same sequence, the figures for “BT-20 (breast, adherent, top dose 10.24 µM)” were 0.95 and more than 10.2 µM.
“BT-474 (breast, adherent, top dose 10.24 µM)”: the AUC is 0.986 and the IC50 is more than 10.2 µM.
The like results for “BT-483 (breast, adherent, top dose 2.56 µM)” were, in that order, 0.967 and more than 2.56 µM.

Staying with this assay, now noted: top dose 5 µM; screen: GDSC drug entry 1072; top dose inferred.
As to A549 (lung adenocarcinoma, adherent), the AUC came out at 0.949 and the IC50 is more than 5 µM.
Taken in the same sequence, the figures for BALL-1 (B-cell leukaemia, suspension) were 0.997 and more than 5 µM.
